# In all, about 370,000 compounds went through this assay and about 150 (0.041%) were called active. The inconclusive results got no clear call from the source; some entries with a clear call stand among them for comparison. Calls follow the shape of the dose curve; as a rule, active = well fitted inhibition curve with a large enough effect; inconclusive = small, poorly fitted or top-dose-only effect; inactive = flat fitted curve, though single readings scatter. Potencies of inconclusive entries are left out as doubtful fits.
# Target: Beta-lactamase (Escherichia coli (strain K12)) (UniProt P00811)
# Sequence of UniProt P00811 (P00811 whole entry, looked up): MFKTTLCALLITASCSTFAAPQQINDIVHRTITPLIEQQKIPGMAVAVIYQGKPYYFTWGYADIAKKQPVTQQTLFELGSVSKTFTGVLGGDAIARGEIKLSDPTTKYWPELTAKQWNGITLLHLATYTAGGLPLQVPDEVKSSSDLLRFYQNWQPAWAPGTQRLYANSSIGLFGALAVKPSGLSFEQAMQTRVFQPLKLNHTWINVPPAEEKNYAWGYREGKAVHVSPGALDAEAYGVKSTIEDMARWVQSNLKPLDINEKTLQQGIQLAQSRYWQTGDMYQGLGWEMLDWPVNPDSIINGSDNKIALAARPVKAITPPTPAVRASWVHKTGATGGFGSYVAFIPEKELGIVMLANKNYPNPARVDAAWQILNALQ
# Assay: qHTS Inhibitors of AmpC Beta-Lactamase (assay with detergent); also: nearly all actives have a fitted effect of over 25% in size
# Details: AmpC hydrolysis of nitrocefin, absorbance 480 nm, 0.01% Triton; series mostly up to 114 µM
# Procedure, shortened: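 AmpC (5.3 nM in the dispensed reagent) in 20 mM phosphate pH 7.0 with 0.01% (detergent screen) or 0.0001% Triton X-100 was preincubated with compounds for 15 min at room temperature. Nitrocefin was then added from an 800 uM solution, and hydrolysis was followed at 480 nm.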
# Potency is read from the fitted curve at half-maximal effect; tags tell the direction and shape of the fitted curve.
row,Compound,Potency
1,CCOC(=O)c1ccc2c(c1)n(CCCS(=O)(=O)[O-])c(/C=C/c1ccc(Cl)cc1)[n+]2CC,inactive
2,CCCCn1c(N)c(N(CC(C)C)C(=O)CN2C(=O)C3CCCCC3C2=O)c(=O)[nH]c1=O (stereo unspecified),"inconclusive [inhibitor, full curve, poor fit]"
3,COc1ccccc1CN1CCCC(CN(CCN(C)C)C(=O)C2CCCC2)C1 (stereo unspecified),"inconclusive [inhibitor, full curve, poor fit]"
4,C=CCSc1nc2c(c(=O)[nH]c(=O)n2C)n1Cc1ccccc1,"inconclusive [inhibitor, full curve, poor fit]"
5,Cc1nnsc1C(=O)Nc1cccc(Cl)c1Cl,"inconclusive [inhibitor, partial curve, poor fit]"
6,CCCCn1c(N)c(N(CCC(C)C)C(=O)CCCc2nc3ccccc3s2)c(=O)[nH]c1=O,"inconclusive [inhibitor, full curve]"
7,CCOc1ccc(Nc2nnc(Cc3ccc(OC)cc3)c(=O)[nH]2)cc1,inactive
8,CC(=O)Nc1cn(-c2ccccc2)nc1-c1ccccc1,inactive
9,CCOC1Cc2ccccc2N(C(N)=O)c2ccccc21 (stereo unspecified),"inconclusive [inhibitor, full curve, poor fit]"
10,CCN(CC(=O)NCc1ccc(F)cc1)C(=O)/C=C/c1cccs1,inactive
11,Cc1cc(C)nc(SCc2nnc(SCC(=O)Nc3nc(-c4ccccc4)cs3)n2C)n1,inactive
12,O=C(Nc1ccc(F)c(F)c1)c1ccc2c(c1)OCO2,"inconclusive [inhibitor, partial curve, poor fit]"
13,Cn1c(=O)oc2cc(S(=O)(=O)NCCc3ccccc3)ccc21,"inconclusive [inhibitor, partial curve, poor fit]"
14,Cc1ccc(OCCn2c(Br)nc3c2c(=O)n(C)c(=O)n3C)cc1,inactive
15,CCN(C(=S)Nc1cccnc1)c1cccc2ccccc12,"inconclusive [inhibitor, full curve, poor fit]"
16,CC(C)[C@H](NS(=O)(=O)c1ccccc1)C(=O)OCC(=O)N1N=C(c2ccc(Cl)cc2)CC1c1ccco1 (stereo partly specified),"inconclusive [inhibitor, full curve]"
17,Cn1ccnc1SCC(=O)n1c2c(c3ccccc31)CCCC2,"inconclusive [inhibitor, full curve, poor fit]"
18,N#C/C(=C\c1cn(-c2ccccc2)nc1-c1cc2ccccc2o1)c1nc2ccccc2[nH]1,inactive
19,COc1ccc(S(=O)(=O)N2CCOCC2)cc1NC(=O)CSc1nnc(N)s1,"inconclusive [inhibitor, full curve, poor fit]"
20,CC(=O)NC1=C(Nc2ccc(N(C)C)cc2)C(=O)c2ccccc2C1=O,"inconclusive [inhibitor, full curve, poor fit]"
21,COc1ccc(NC(=O)NCCc2cccc(Cl)c2)cc1OC,inactive

row,Compound,Potency
1,C=CCc1ccccc1OCCCCN1CCCC1,"inconclusive [inhibitor, full curve, poor fit]"
2,O=C(COC(=O)C1CCC1)NCc1ccc(F)cc1,"inconclusive [inhibitor, full curve, poor fit]"
3,Cc1cccc(C)c1NC(=O)C(NC(=O)CN1C(=O)c2ccccc2C1=O)c1ccccc1 (stereo unspecified),"inconclusive [inhibitor, full curve, poor fit]"
4,CCO/C=N/c1c(C#N)c(CC#N)nn1-c1ccccc1,"inconclusive [inhibitor, partial curve, poor fit]"
5,COCCn1c(SCC(=O)Nc2ncc(C)s2)nc2sc3c(c2c1=O)CCC3,"inconclusive [inhibitor, full curve, poor fit]"
6,COc1ccc(NC(=O)CSc2ncc3c(n2)-c2cc(Cl)ccc2N(Cc2ccccc2F)S3(=O)=O)cc1,"inconclusive [inhibitor, single point]"
7,Cc1cccc(C(=O)N=c2c(C#N)cc3c(=O)n4cccc(C)c4nc3n2Cc2ccco2)c1,"inconclusive [inhibitor, full curve, poor fit]"
8,CCCCNC(=O)c1cccc2c(=O)c(C)c(-c3ccccc3)oc12,inactive
9,CCN(C(=O)COC(=O)CCc1ccc(OC)cc1)c1c(N)n(Cc2ccccc2)c(=O)[nH]c1=O,"inconclusive [inhibitor, partial curve, poor fit]"
10,O=C(Nc1ccc2ccccc2c1)c1ccccc1F,inactive
11,Cc1ccc2nc(-c3cccnc3)cc(C(=O)N3CCN(c4ccc([N+](=O)[O-])cc4)CC3)c2c1,"inconclusive [inhibitor, single point]"
12,O=C(c1ccco1)n1nc(-c2ccccc2)nc1NCc1ccco1,inactive
13,O=C1c2cccc3c(N4CCCCC4)ccc(c23)C(=O)N1c1ccc(O)cc1,inactive
14,COc1ccc(N=C2SCC(=O)N2c2ccc(OC)cc2)cc1,"inconclusive [inhibitor, full curve, poor fit]"
15,COC(=O)c1ccc(-c2ccc(CNCC(O)c3ccccc3)o2)cc1 (stereo unspecified),"inconclusive [inhibitor, full curve, poor fit]"
16,CC(C)c1cc(C(F)(F)F)n2nc(C(=O)O)cc2n1,"inconclusive [inhibitor, single point]"
17,Cc1cccn2cc(-c3ccc(F)cc3)nc12,"inconclusive [inhibitor, partial curve, poor fit]"
18,CSCCC(NC(=O)c1ccccc1Br)C(=O)NCCCn1nc(C)cc1C (stereo unspecified),"inconclusive [inhibitor, full curve, poor fit]"
19,Cn1c(=O)c2c(nc(CN3CCC(C(N)=O)CC3)n2Cc2ccccc2F)n(C)c1=O,"inconclusive [inhibitor, partial curve, poor fit]"
20,COCCn1c(CCC(=O)O)nc2c1c(=O)[nH]c(=O)n2CC(C)C,"inconclusive [inhibitor, full curve, poor fit]"

# From PubChem BioAssay AID485294 (National Center for Advancing Translational Sciences (NCATS), 2010)
